Measured values reported in PMC4336329 (PLoS ONE, 2015).
The whole screen tested about 310,000 compounds, of which about 14,000 (4.5%) showed an effect of 50% or more. Effects have a minus sign here. This is one part of the list.
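Further: peak tail current of the secondary pulse compared with the same well before compound.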

These molecules were tested against human ether-à-go-go-related gene (hERG) potassium channel (human, UniProt Q12809) (assay: primary screen, population patch clamp on CHO cells stably expressing hERG).
human ether-à-go-go-related gene (hERG) potassium channel, sequence (Q12809 whole entry, looked up): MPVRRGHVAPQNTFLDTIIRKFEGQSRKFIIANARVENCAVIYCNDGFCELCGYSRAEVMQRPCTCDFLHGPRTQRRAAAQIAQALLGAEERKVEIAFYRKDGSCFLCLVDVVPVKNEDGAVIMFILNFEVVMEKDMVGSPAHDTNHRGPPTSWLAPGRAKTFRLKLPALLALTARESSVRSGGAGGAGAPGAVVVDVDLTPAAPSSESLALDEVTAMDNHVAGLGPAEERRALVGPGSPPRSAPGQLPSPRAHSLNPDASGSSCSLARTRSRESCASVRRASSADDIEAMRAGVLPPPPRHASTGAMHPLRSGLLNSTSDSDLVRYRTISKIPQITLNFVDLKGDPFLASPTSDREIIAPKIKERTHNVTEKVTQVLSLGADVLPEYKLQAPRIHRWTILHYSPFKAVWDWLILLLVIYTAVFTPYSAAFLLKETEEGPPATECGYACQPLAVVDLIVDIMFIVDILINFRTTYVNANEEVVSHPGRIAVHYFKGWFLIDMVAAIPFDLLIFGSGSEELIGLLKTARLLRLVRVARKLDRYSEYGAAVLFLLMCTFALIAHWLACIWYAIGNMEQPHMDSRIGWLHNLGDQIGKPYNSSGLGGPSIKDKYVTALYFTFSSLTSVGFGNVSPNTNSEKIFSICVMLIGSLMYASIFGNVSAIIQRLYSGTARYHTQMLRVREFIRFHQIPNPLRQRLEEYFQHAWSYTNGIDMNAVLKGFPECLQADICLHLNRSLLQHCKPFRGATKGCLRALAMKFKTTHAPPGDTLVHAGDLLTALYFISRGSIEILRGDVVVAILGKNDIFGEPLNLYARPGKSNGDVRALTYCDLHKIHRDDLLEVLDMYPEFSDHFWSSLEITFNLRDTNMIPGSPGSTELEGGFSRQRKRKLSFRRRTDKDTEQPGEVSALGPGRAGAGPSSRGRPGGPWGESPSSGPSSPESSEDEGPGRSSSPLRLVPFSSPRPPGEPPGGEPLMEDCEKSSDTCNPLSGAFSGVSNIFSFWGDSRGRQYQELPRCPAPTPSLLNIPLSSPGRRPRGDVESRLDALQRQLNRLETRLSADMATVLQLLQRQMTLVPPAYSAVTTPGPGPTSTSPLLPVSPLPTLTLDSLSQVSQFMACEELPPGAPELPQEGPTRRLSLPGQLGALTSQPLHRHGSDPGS
In the case of `Cn1nc(-c2ccccc2)cc1NC(=O)c1cccs1`, the “hERG current change (%, negative = inhibition) at 10uM” value is reported as 5.18%. In the case of `CC(=O)Nc1ccccc1OCc1nnc(-c2ccccc2Cl)o1`, the “hERG current change (%, negative = inhibition) at 10uM” value is reported as 11.5%. For `O=C(NC(=S)Nc1ccccc1N1CCOCC1)c1cccs1`, the “hERG current change (%, negative = inhibition) at 10uM” value was -1.16%. For `CC(C)n1c(-c2ccccc2F)n[nH]c1=S`, the “hERG current change (%, negative = inhibition) at 10uM” value was 10.6%. For `COC(=O)C1=C(c2ccc(Cl)c(C(F)(F)F)c2)C[C@@H]2CC[C@H]1N2C(=O)NCc1cc(C)oc1C(F)(F)F`, the “hERG current change (%, negative = inhibition) at 10uM” value was 6.92%. In the case of `COc1ccc(CNC2=CC(=O)CC(C)(C)C2)cc1`, the “hERG current change (%, negative = inhibition) at 10uM” value is reported as -17.9%. For `Cc1c(C)n(CCc2ccccc2)c2ncnc(NCCO)c12`, the “hERG current change (%, negative = inhibition) at 10uM” value was -12.9%. With `COc1ccc(NC(=O)C2c3cc(OC)c(OC)cc3C(=O)N(C)C2c2cccnc2)cc1OC` (stereo not drawn) the “hERG current change (%, negative = inhibition) at 10uM” value was -6.21%. In the case of `Cc1ccc(CSc2nnc(-c3cccs3)n2C)cc1`, the “hERG current change (%, negative = inhibition) at 10uM” value is reported as -31.9%. With `O=C(c1ccc(C#Cc2ccccc2)o1)N1CCN(c2ccccn2)CC1` the “hERG current change (%, negative = inhibition) at 10uM” value was -6.76%. `CC(=O)Nc1ccc(S(=O)(=O)N2CCC(C(=O)NCc3cccnc3)CC2)cc1` was tested, and the “hERG current change (%, negative = inhibition) at 10uM” value was 20.3%. For `Cc1cc(C)c(S(=O)(=O)N2CCOC2CNC(=O)C(=O)NCCN(C)C)c(C)c1` (stereo not drawn), the “hERG current change (%, negative = inhibition) at 10uM” value was 13.1%. `Cc1cc(=O)[nH]c2ccc(S(=O)(=O)Nc3ccccc3)cc12` was tested, and the “hERG current change (%, negative = inhibition) at 10uM” value was 10%. With `O=C(Cc1ccc(Cl)cc1)NCC(=O)N1CCN(Cc2ccccc2)CC1` the “hERG current change (%, negative = inhibition) at 10uM” value was -26.8%. `Cc1ccc(N/N=C/c2cccnc2)cc1.Cl` was tested, and the “hERG current change (%, negative = inhibition) at 10uM” value was -9.59%. `Cc1cc(OCc2cc(C(=O)N(C)CCCN3CCOCC3)no2)cc(C)c1Cl` was tested, and the “hERG current change (%, negative = inhibition) at 10uM” value was -58%. With `O=C1NC(Cc2c[nH]c3ccccc23)C(=O)N1Cc1ccc(CN2C(=O)NC(Cc3c[nH]c4ccccc34)C2=O)cc1` (stereo not drawn) the “hERG current change (%, negative = inhibition) at 10uM” value was 10.4%. `Cc1ncc([N+](=O)[O-])n1CC(C)O` (stereo not drawn) was tested, and the “hERG current change (%, negative = inhibition) at 10uM” value was -1.1%. With `CC(=O)C1=C(C)NC(SCc2ccc(C#N)cc2)=C(C#N)C1c1ccco1` (stereo not drawn) the “hERG current change (%, negative = inhibition) at 10uM” value was -29.3%. For `C/C(=N/N=C(/N)SCc1ccccc1)C(C)(C)C.Cl`, the “hERG current change (%, negative = inhibition) at 10uM” value was 27.3%. With `CCOC(=O)c1c(NC(=O)CSc2nnc(CNc3ccc(C)cc3C)o2)sc(C)c1C` the “hERG current change (%, negative = inhibition) at 10uM” value was 11.7%. In the case of `O=C(O)c1ccc(S(=O)(=O)c2ccccc2)cc1`, the “hERG current change (%, negative = inhibition) at 10uM” value is reported as 11.5%. With `CC1CN(c2nnc(NC(=O)c3ccccc3)s2)CC(C)O1` (stereo not drawn) the “hERG current change (%, negative = inhibition) at 10uM” value was 32.1%. For `Cn1cnnc1SCC(=O)c1ccc2c(c1)OCCO2`, the “hERG current change (%, negative = inhibition) at 10uM” value was -0.473%. `CCNc1ccc(S(N)(=O)=O)cc1[N+](=O)[O-]` was tested, and the “hERG current change (%, negative = inhibition) at 10uM” value was 2.57%. For `Cc1nc(SCc2ccccc2)c([N+](=O)[O-])[nH]1`, the “hERG current change (%, negative = inhibition) at 10uM” value was 16.6%. For `O=C(c1ccc(F)cc1)N1CCN2C(=O)c3ccccc3C12c1ccc(Cl)cc1` (stereo not drawn), the “hERG current change (%, negative = inhibition) at 10uM” value was -46.6%. In the case of `CC(C)NC(=O)CSc1nncn1-c1ccccc1`, the “hERG current change (%, negative = inhibition) at 10uM” value is reported as 10.5%. `CCCC1(CCC)NC(=O)N(CC(=O)c2cc(C)n(-c3ccc4c(c3)OCO4)c2C)C1=O` was tested, and the “hERG current change (%, negative = inhibition) at 10uM” value was 5.65%. `Cc1ccc(CNC(=O)C2CC3Cn4c(nc5ccccc54)C3N2C)o1` (stereo not drawn) was tested, and the “hERG current change (%, negative = inhibition) at 10uM” value was -0.36%. `COc1ccccc1C(=O)Nc1ccc2c(C)cc(=O)oc2c1` was tested, and the “hERG current change (%, negative = inhibition) at 10uM” value was 15.4%. `CC(COc1ccccc1)N1CCC(CO)(CCc2ccccc2)CC1` (stereo not drawn) was tested, and the “hERG current change (%, negative = inhibition) at 10uM” value was -80.3%. `Cc1ccccc1NC(=O)C1c2cccc[n+]2CC(=O)N1Cc1ccc2c(c1)OCO2.[I-]` (stereo not drawn) was tested, and the “hERG current change (%, negative = inhibition) at 10uM” value was 12.1%. `O=C(Cc1ccccc1[N+](=O)[O-])Nc1nccs1` was tested, and the “hERG current change (%, negative = inhibition) at 10uM” value was -16.6%. For `CC(C)NC(=S)N/N=C/c1cccnc1`, the “hERG current change (%, negative = inhibition) at 10uM” value was 8.57%. For `Nc1ccc(-c2nc3ccccc3o2)cc1`, the “hERG current change (%, negative = inhibition) at 10uM” value was 18.1%. `Brc1cc(Br)c2ncnc(N3CCCCC3)c2c1` was tested, and the “hERG current change (%, negative = inhibition) at 10uM” value was -11.8%. `COC(=O)c1sccc1NC(=O)COc1ccccc1Cl` was tested, and the “hERG current change (%, negative = inhibition) at 10uM” value was 12.6%. `Fc1ccc(COc2ccc(/C=N/n3cnnc3)cc2)cc1` was tested, and the “hERG current change (%, negative = inhibition) at 10uM” value was -30.9%. With `Cc1cc(C)c(S(=O)(=O)N2CCCCC2)c(C)c1N(C)S(=O)(=O)c1ccc(Cl)cc1` the “hERG current change (%, negative = inhibition) at 10uM” value was 0.393%. For `CC1CCN(S(=O)(=O)c2ccc3c(c2)NC(=O)CS3)CC1`, the “hERG current change (%, negative = inhibition) at 10uM” value was -52.2%. `O=C1NC[C@H](Cc2ccc(O)cc2)N(CC2CCCCC2)C1=O` was tested, and the “hERG current change (%, negative = inhibition) at 10uM” value was 17%. For `Cc1c(N=Nc2c(O)n(C)c(=O)n(C)c2=O)c(=O)n(-c2ccccc2)n1C`, the “hERG current change (%, negative = inhibition) at 10uM” value was 8.74%. `CN(C)CCCN(C(=O)c1ccc(S(=O)(=O)N2CCCCCC2)cc1)c1nc2ccc(Br)cc2s1.Cl` was tested, and the “hERG current change (%, negative = inhibition) at 10uM” value was -22%. `CC1(C)Cc2c(sc3c2c(=O)n(-c2cccc(Cl)c2)c(=O)n3CC(N)=O)CO1` was tested, and the “hERG current change (%, negative = inhibition) at 10uM” value was -5.02%. For `CC(=O)NN=C1CCC(c2ccccc2)CC1` (stereo not drawn), the “hERG current change (%, negative = inhibition) at 10uM” value was -5.44%. `O=C(CCC(=O)Nc1ccc(Oc2ccccc2)cc1)NCCO` was tested, and the “hERG current change (%, negative = inhibition) at 10uM” value was -4.44%. For `C=C[C@@H]1c2ccccc2N(S(=O)(=O)c2ccc(C)cc2)[C@H](c2ccccc2)C1(C#N)C#N`, the “hERG current change (%, negative = inhibition) at 10uM” value was 23.7%. `Cc1[nH]nc2c1C1(CCC3(CC1)OCCO3)C(C#N)=C(N)O2` was tested, and the “hERG current change (%, negative = inhibition) at 10uM” value was -0.214%. For `CC(C)Oc1cccc(C(=O)C2CCCN(Cc3cnc(N4CCOCC4)s3)C2)c1` (stereo not drawn), the “hERG current change (%, negative = inhibition) at 10uM” value was -44.7%. For `CN(C)/C=C/C(=O)c1cnc2sccn2c1=O`, the “hERG current change (%, negative = inhibition) at 10uM” value was 5.24%. In the case of `COc1ccccc1CN1CC(C(=O)N2CCOCC2)CCC1=O` (stereo not drawn), the “hERG current change (%, negative = inhibition) at 10uM” value is reported as -14.6%. `O=C(CCNS(=O)(=O)c1ccccc1Cl)OCc1nnc(-c2ccccc2Cl)o1` was tested, and the “hERG current change (%, negative = inhibition) at 10uM” value was -25.5%. With `CCn1cc(CN2CCC(C(=O)Nc3ccc(Oc4cccnc4)cc3)CC2)cn1` the “hERG current change (%, negative = inhibition) at 10uM” value was -19%. `COc1ccc(CCNC(=O)C2(C)CCC(=O)N2Cc2ccc3c(c2)OCO3)cc1OC` (stereo not drawn) was tested, and the “hERG current change (%, negative = inhibition) at 10uM” value was 2.22%. For `CCc1ccc(OCC(=O)Nc2ccc(S(=O)(=O)N3CCCC3)cc2)c(Br)c1`, the “hERG current change (%, negative = inhibition) at 10uM” value was -4.25%. `Oc1ccc(/C=N/Nc2nccnc2Cl)c(O)c1` was tested, and the “hERG current change (%, negative = inhibition) at 10uM” value was 0.455%.
